Laboratory results reported in the supplement of paper PMC10126150.
Values marked as one replicate rest on one cluster of the flow cell; about a third of the high ones do not repeat.

test system: ATP; test: switch fluorescence ratio, 500 uM ATP over buffer (Cy3 cluster intensity, sum of 5 cycles each) (fold (ratio)); higher = stronger signal-on switching upon ATP binding; sequences stand for … in TCGTCGGCAGCGTCAGATGTGTATAAGAGACAGTTTTTTTTTTTTTTTTTTTTTTTTT…TC; settings: aptamer strand: ATP DNA aptamer (quencher-CACCTGGGGGAGTATTGCGGAGGAAGG + anchor), 100 nM annealed; ATP concentration: 500 uM; one replicate
How it was run: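 Per cluster, summed Cy3 intensity from the target cycles was divided by that from the buffer cycles to give the fluorescence ratio, then averaged per switch-domain sequence. Clusters outside 100-1000 RFU were excluded. The Cy3-labelled switching-strand clusters, on a modified Illumina MiSeq flow-cell, were annealed to 100 nM quencher-labelled ATP aptamer and imaged in selection buffer, then after 15 min with 500 uM ATP at 22 °C, for five cycles with NaOH stripping and re-annealing between them.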
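Also: ATP exposure 15 min at 22 °C before imaging.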

| Sequence | switch fluorescence ratio |
| --- | --- |
| TCTTAATGAG | 1.01 |
| TCTTACAAAA | 0.952 |
| TCTTACCCCG | 1.02 |
| TCTTATGGCT | 1.02 |
| TCTTATGTCC | 1 |
| TCTTATTTCT | 1 |
| TCTTCACTG | 1.07 |
| TCTTCCGATT | 1.21 |
| TCTTCGACTA | 1.05 |
| TCTTCGTGGA | 1.07 |
| TCTTCTAACT | 0.998 |
| TCTTCTAGAA | 0.965 |
| TCTTCTCTGC | 1.16 |
| TCTTGACGGT | 0.99 |
| TCTTGCAGAT | 1.01 |
| TCTTGCGGAT | 1.01 |
| TCTTGCTGGT | 0.978 |
| TCTTGGGCCA | 0.991 |
| TCTTGGGTCT | 1.01 |
| TCTTGGTTA | 0.978 |
| TCTTGTAAGC | 1.03 |
| TCTTGTACGG | 1.03 |
| TCTTGTCTTC | 1.34 |
| TCTTGTGTTA | 0.978 |
| TCTTTAAGTA | 0.969 |

| Sequence | switch fluorescence ratio |
| --- | --- |
| TCTTTACTGG | 1.05 |
| TCTTTAGTTA | 1.24 |
| TCTTTAGTTC | 1.15 |
| TCTTTATGAG | 0.986 |
| TCTTTCAAAC | 1.1 |
| TCTTTCACGA | 1.02 |
| TCTTTCTCTT | 1 |
| TCTTTCTGGA | 0.968 |
| TCTTTGC | 1.15 |
| TCTTTGGATT | 0.994 |
| TCTTTTGAGT | 0.989 |
| TGAAAAATCT | 1.01 |
| TGAAAACAAA | 1.03 |
| TGAAAAGCCG | 1.08 |
| TGAAAAGTCC | 1.02 |
| TGAAACCAGC | 1.02 |
| TGAAACCGCG | 1.52 |
| TGAAACGAGC | 1.02 |
| TGAAAGATGA | 0.985 |
| TGAAAGCACC | 1.12 |
| TGAAAGGAA | 1.04 |
| TGAAAGTGCC | 1.01 |
| TGAAATATAT | 1.01 |
| TGAAATGGAT | 1.01 |
| TGAAATGTAG | 0.962 |

| Sequence | switch fluorescence ratio |
| --- | --- |
| TGAAATGTTG | 0.978 |
| TGAACTCGAG | 1.06 |
| TGAAGATATG | 1 |
| TGAAGCGGGG | 1.01 |
| TGAAGCTCCG | 0.993 |
| TGAAGCTGCG | 1.03 |
| TGAAGGAATA | 1.07 |
| TGAAGGCCAT | 1.01 |
| TGAAGGGCCT | 0.91 |
| TGAAGGGTCT | 0.969 |
| TGAAGGTACG | 0.946 |
| TGAAGTGATG | 1.04 |
| TGAAGTGTGT | 0.971 |
| TGAATAGGCG | 0.963 |
| TGAATCCGCT | 1.41 |
| TGAATCCTGC | 1.04 |
| TGAATCGAAC | 1.07 |
| TGAATCTACT | 0.993 |
| TGAATGCGCG | 1.05 |
| TGAATGGTTA | 1.02 |
| TGAATGTAAC | 1 |
| TGAATTACCA | 1.09 |
| TGAATTCGAC | 1.02 |
| TGAATTTGCC | 0.99 |
| TGACAAAGTA | 0.987 |

| Sequence | switch fluorescence ratio |
| --- | --- |
| TGACACACTA | 1.41 |
| TGACACTGTT | 0.996 |
| TGACAGCCA | 1.8 |
| TGACCATCTC | 1.09 |
| TGACCCAAGT | 1 |
| TGACCGGAAT | 2.43 |
| TGACGATAGT | 1.03 |
| TGACGATGAT | 0.963 |
| TGACGATTGG | 1 |
| TGACGCGTAG | 1.07 |
| TGACGCTTTG | 1.02 |
| TGACGGACGT | 1.09 |
| TGACGGGGCC | 0.958 |
| TGACTATATT | 1.06 |
| TGACTCAGTA | 1.03 |
| TGACTCGTTA | 0.974 |
| TGACTGAGTT | 1.02 |
| TGACTTGGTA | 0.941 |
| TGAGAACCTC | 1.02 |
| TGAGAATACT | 1.03 |
| TGAGAATGTC | 1.05 |
| TGAGAATTAT | 0.988 |
| TGAGAGCATG | 1.01 |
| TGAGAGCCTG | 0.996 |
| TGAGAGGGAA | 0.965 |

| Sequence | switch fluorescence ratio |
| --- | --- |
| TGAGATTATG | 0.986 |
| TGAGATTGGT | 1 |
| TGAGCACCTA | 1.07 |
| TGAGCCACGA | 1.06 |
| TGAGCGCGTC | 1 |
| TGAGCTACTC | 1.25 |
| TGAGCTAGT | 0.959 |
| TGAGCTGTCC | 1.07 |
| TGAGGACGAG | 1.01 |
| TGAGGAGTTC | 0.994 |
| TGAGGCATGA | 1.08 |
| TGAGGCATGG | 0.992 |
| TGAGGCCCTG | 0.981 |
| TGAGGCTAA | 1.06 |
| TGAGGCTTTG | 0.984 |
| TGAGGGAAGG | 0.984 |
| TGAGGGAATA | 1.13 |
| TGAGGGTCTC | 0.98 |
| TGAGGTAGCC | 0.988 |
| TGAGGTCTCC | 1.06 |
| TGAGGTCTGC | 1.01 |
| TGAGTAATCG | 1.09 |
| TGAGTAGTCT | 1.1 |
| TGAGTCATCA | 1.02 |
| TGAGTCGCGC | 0.955 |

| Sequence | switch fluorescence ratio |
| --- | --- |
| TGAGTGAAAA | 1.02 |
| TGAGTGAGAT | 0.981 |
| TGAGTGCCTC | 0.974 |
| TGAGTTAGGT | 1.02 |
| TGAGTTCAGC | 1.03 |
| TGAGTTCGCC | 1.01 |
| TGAGTTGGGC | 1.03 |
| TGATAAGACA | 1.03 |
| TGATAATAAA | 0.995 |
| TGATAATAAC | 1.04 |
| TGATACCCA | 1.04 |
| TGATACGGTA | 1.09 |
| TGATACTCAA | 0.995 |
| TGATAGTTTA | 0.967 |
| TGATATCCAG | 0.957 |
| TGATATTGGC | 0.937 |
| TGATCAAATA | 1.03 |
| TGATCAGCAG | 1.02 |
| TGATCAGGTT | 1.02 |
| TGATCATGCT | 0.944 |
| TGATCGACAA | 1.03 |
| TGATCGTGAC | 1.05 |
| TGATCGTGTA | 0.947 |
| TGATCGTGTC | 1.05 |
| TGATCTGCCC | 1.04 |

| Sequence | switch fluorescence ratio |
| --- | --- |
| TGATCTGGAA | 0.997 |
| TGATGAAGCT | 1.01 |
| TGATGAAGT | 1.11 |
| TGATGATCG | 0.967 |
| TGATGATTGA | 0.977 |
| TGATGCAAG | 1.01 |
| TGATGCTTTC | 1.08 |
| TGATGGTTGG | 1.01 |
| TGATGTACGA | 0.983 |
| TGATGTATCT | 1.02 |
| TGATGTATGG | 1.04 |
| TGATGTTGCT | 0.991 |
| TGATTACTCT | 1.01 |
| TGATTAGTG | 1.03 |
| TGATTATACG | 0.961 |
| TGATTATATC | 1.04 |
| TGATTATGAT | 0.999 |
| TGATTCACGT | 1.01 |
| TGATTCATTA | 0.971 |
| TGATTCGATT | 1.03 |
| TGATTCGTGG | 0.992 |
| TGATTCTAGG | 1.01 |
| TGATTCTTC | 0.96 |
| TGATTGCTCG | 0.981 |
| TGATTTAGCA | 1.03 |

| Sequence | switch fluorescence ratio |
| --- | --- |
| TGATTTCAGA | 0.985 |
| TGATTTCGTA | 0.98 |
| TGATTTGCGC | 0.943 |
| TGATTTTATA | 0.98 |
| TGATTTTCAA | 1.07 |
| TGCAACCTAA | 0.995 |
| TGCAACGGCT | 0.969 |
| TGCAACGTAA | 1.26 |
| TGCAAGGTAG | 1.02 |
| TGCAATGAGT | 1.04 |
| TGCAATTAGT | 1.13 |
| TGCACAAGGC | 1.1 |
| TGCACAGCGT | 1.04 |
| TGCACCTCAG | 1.08 |
| TGCACGAGTA | 0.993 |
| TGCACGGACT | 1.19 |
| TGCACTAGCT | 0.932 |
| TGCACTATGG | 1 |
| TGCACTCCGC | 2.47 |
| TGCACTGGCA | 1.07 |
| TGCAGAGCTC | 1.01 |
| TGCAGCACC | 1.2 |
| TGCAGCATGG | 1.16 |
| TGCAGCGGCT | 1.02 |
| TGCAGGAAAG | 1.03 |
